How the values were obtained:
[1] = target: Ribosomal protein S6 kinase alpha-3 (Homo sapiens) (UniProt P51812); test: Inhibition of RSK2 domain1 ATP binding site (VLGQGSFGKVFLVK) in human PBMC at 1 uM
[2] = target: Serine/threonine-protein kinase WNK2 (Homo sapiens) (UniProt Q9Y3S1); test: Inhibition of Wnk2 conserved Lys2 (DLKCDNIFITGPTGSVK) in human PBMC at 1 uM
[3] = target: T1, Scaffold protein ILK (Homo sapiens) (UniProt Q13418); test: Inhibition of ILK conserved Lys1 (WQGNDIVVKVLK) in human PBMC at 0.1 uM
T1 sequence (whole entry): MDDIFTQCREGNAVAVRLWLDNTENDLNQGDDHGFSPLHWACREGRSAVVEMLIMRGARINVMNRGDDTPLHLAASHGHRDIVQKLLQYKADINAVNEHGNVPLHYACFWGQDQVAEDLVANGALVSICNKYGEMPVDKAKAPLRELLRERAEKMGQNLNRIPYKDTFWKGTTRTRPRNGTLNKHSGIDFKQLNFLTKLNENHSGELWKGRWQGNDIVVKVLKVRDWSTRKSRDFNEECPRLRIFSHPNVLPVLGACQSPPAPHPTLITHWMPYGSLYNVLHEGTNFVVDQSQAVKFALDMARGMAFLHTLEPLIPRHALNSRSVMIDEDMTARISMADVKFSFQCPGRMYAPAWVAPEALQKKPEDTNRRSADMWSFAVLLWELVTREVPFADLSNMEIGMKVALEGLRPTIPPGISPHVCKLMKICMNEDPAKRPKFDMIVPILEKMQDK

[4] = target: Mitogen-activated protein kinase 14 (Homo sapiens) (UniProt Q16539); test: Inhibition of p38a (QELNKTIWEVPER) in human PBMC at 1 uM
UniProt Q16539, sequence (Q16539 whole entry): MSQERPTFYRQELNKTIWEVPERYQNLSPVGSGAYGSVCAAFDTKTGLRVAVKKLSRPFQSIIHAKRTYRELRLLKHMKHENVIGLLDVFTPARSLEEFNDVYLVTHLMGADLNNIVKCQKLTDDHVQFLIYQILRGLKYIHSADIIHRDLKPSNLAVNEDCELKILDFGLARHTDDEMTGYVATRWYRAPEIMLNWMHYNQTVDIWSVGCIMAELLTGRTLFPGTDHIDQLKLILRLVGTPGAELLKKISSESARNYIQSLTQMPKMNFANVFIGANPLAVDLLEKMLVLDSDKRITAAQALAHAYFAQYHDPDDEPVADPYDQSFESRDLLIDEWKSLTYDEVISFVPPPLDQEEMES

[5] = target: Mitogen-activated protein kinase 14 (Homo sapiens) (UniProt Q16539); test: Inhibition of p38a conserved Lys2 (DLKPSNLAVNEDCELK) in human PBMC at 0.1 uM
[6] = target: Eukaryotic elongation factor 2 kinase (Homo sapiens) (UniProt O00418); test: Inhibition of eEF2K ATP binding site (YIKYNSNSGFVR) in human PBMC at 0.1 uM
UniProt O00418, sequence (O00418 whole entry): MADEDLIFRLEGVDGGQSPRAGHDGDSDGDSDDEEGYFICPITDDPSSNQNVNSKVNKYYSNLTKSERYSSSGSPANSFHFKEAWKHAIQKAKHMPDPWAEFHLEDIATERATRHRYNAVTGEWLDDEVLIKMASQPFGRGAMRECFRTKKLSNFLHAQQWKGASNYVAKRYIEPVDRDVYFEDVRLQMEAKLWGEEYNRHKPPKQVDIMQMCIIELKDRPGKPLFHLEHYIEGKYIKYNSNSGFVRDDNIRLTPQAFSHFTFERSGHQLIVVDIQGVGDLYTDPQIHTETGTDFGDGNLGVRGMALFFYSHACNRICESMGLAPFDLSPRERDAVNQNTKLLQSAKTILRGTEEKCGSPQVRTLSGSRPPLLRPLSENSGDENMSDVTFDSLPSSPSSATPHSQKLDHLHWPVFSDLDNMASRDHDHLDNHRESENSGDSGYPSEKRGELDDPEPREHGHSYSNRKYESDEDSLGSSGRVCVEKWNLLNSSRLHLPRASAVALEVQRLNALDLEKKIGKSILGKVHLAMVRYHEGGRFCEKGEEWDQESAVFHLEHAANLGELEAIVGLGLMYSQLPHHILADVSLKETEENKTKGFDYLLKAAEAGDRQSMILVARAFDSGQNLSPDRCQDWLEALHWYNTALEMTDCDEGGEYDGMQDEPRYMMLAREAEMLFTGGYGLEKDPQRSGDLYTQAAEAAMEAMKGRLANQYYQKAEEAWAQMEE

[7] = target: Tyrosine-protein kinase Lyn (Homo sapiens) (UniProt P07948); test: Inhibition of LYN activation Loop (EGAKFPIKWTAPEAINFGCFTIK) in human PBMC at 1 uM
UniProt P07948, sequence (P07948 whole entry, looked up): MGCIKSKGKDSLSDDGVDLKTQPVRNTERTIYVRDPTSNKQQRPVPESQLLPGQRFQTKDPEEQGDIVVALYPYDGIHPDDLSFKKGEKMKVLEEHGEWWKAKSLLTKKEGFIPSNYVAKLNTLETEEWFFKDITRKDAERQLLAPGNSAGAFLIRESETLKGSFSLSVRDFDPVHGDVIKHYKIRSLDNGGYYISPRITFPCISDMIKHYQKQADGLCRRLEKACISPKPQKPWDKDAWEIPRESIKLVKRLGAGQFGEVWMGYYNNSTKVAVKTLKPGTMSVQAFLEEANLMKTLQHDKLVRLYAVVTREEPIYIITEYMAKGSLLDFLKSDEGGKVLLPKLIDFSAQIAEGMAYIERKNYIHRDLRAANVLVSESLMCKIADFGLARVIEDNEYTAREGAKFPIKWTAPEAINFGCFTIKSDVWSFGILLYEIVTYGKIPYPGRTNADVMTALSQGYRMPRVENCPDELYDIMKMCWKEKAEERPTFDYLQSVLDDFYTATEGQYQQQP

[8] = target: RAC-gamma serine/threonine-protein kinase (Homo sapiens) (UniProt Q9Y243); test: Inhibition of AKT3 labeling at conserved Lys1 (IGHYILGDTLGVGTFGKVK) in human PBMC at 1 uM
[9] = organism: Homo sapiens; test: Inhibition of p70S6K ATP binding site (GGYGKVFQVR) in human PBMC at 1 uM
[10] = target: Mitogen-activated protein kinase 14 (Homo sapiens) (UniProt Q16539); test: Inhibition of p38a conserved Lys2 (DLKPSNLAVNEDCELK) in human PBMC at 1 uM
[11] = target: Mitogen-activated protein kinase 10 (Homo sapiens) (UniProt P53779); test: Inhibition of JNK3 conserved Lys2 (DLKPSNIVVK) in human PBMC at 1 uM
UniProt P53779, sequence (P53779 whole entry): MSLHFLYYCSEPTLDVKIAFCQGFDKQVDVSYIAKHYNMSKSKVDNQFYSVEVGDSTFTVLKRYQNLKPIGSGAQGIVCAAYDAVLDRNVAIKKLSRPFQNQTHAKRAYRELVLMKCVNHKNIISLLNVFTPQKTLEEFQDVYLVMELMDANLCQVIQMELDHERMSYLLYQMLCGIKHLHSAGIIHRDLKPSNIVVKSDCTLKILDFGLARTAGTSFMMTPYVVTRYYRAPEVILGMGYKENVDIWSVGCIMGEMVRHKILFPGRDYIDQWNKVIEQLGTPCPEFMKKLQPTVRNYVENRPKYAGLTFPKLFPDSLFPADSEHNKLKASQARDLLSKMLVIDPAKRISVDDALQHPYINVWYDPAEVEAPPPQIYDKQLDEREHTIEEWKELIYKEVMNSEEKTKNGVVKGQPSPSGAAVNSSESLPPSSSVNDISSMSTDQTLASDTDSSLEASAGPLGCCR

[12] = target: Serine/threonine-protein kinase LATS2 (Homo sapiens) (UniProt Q9NRM7); test: Inhibition of LATS2 conserved Lys2 (DIKPDNILIDLDGHIK) in human PBMC at 1 uM
[13] = target: Receptor-interacting serine/threonine-protein kinase 3 (Homo sapiens) (UniProt Q9Y572); test: Inhibition of RIPK3 conserved Lys2 (DLKPSNVLLDPELHVK) in human PBMC at 0.1 uM
[14] = target: Ribosomal protein S6 kinase alpha-3 (Homo sapiens) (UniProt P51812); test: Inhibition of RSK2 domain2 conserved Lys2 (DLKPSNILYVDESGNPESIR) in human PBMC at 0.1 uM
[15] = target: Cyclin-dependent kinase 1 (Homo sapiens) (UniProt P06493); test: Inhibition of CDC2 labeling at conserved Lys2 (DLKPQNLLIDDKGTIK) in human PBMC at 1 uM
UniProt P06493, sequence (P06493 whole entry, looked up): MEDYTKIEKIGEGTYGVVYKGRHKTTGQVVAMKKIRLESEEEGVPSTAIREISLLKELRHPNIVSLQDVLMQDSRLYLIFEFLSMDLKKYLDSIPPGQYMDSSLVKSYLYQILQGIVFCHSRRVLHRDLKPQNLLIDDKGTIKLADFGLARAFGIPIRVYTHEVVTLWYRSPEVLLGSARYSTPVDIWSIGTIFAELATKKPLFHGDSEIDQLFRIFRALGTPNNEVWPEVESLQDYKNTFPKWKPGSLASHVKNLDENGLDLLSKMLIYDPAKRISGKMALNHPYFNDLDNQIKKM

[16] = target: Mitogen-activated protein kinase 7 (Homo sapiens) (UniProt Q13164); test: Inhibition of Erk5 conserved Lys2 (DLKPSNLLVNENCELK) in human PBMC at 0.1 uM
[17] = target: Ribosomal protein S6 kinase alpha-3 (Homo sapiens) (UniProt P51812); test: Inhibition of RSK2 domain2 conserved Lys2 (DLKPSNILYVDESGNPESIR) in human PBMC at 1 uM
[18] = target: Dual specificity mitogen-activated protein kinase kinase 5 (Homo sapiens) (UniProt Q13163); test: Inhibition of MAP2K5 conserved Lys2 (DVKPSNMLVNTR) in human PBMC at 1 uM
[19] = target: Interferon-induced, double-stranded RNA-activated protein kinase (Homo sapiens) (UniProt P19525); test: Inhibition of PKR conserved Lys2 (DLKPSNIFLVDTK) in human PBMC at 1 uM
UniProt P19525, sequence (P19525 whole entry): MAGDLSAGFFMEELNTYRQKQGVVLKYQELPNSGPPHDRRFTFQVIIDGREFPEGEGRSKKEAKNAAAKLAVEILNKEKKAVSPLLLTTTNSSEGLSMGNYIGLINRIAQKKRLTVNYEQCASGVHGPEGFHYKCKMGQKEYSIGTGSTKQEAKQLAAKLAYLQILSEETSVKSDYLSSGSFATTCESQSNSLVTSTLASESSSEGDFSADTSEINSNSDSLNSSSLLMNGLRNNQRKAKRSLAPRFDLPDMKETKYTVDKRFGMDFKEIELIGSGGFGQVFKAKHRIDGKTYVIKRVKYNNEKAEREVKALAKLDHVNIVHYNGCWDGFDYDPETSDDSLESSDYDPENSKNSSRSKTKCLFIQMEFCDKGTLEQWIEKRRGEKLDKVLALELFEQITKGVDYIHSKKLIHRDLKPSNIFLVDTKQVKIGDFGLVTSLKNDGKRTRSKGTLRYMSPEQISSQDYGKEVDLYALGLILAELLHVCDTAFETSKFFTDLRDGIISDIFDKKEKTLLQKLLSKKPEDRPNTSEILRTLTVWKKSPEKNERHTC

[20] = target: Kinase suppressor of Ras 1 (Homo sapiens) (UniProt Q8IVT5); test: Inhibition of KSR1 activation Loop (SKNVFYDNGKVVITDFGLFGISGVVR) in human PBMC at 0.1 uM
[21] = target: Cyclin-dependent kinase 18 (Homo sapiens) (UniProt Q07002); test: Inhibition of PCTAIRE3 conserved Lys2 (DLKPQNLLINER) in human PBMC at 0.1 uM
[22] = target: Misshapen-like kinase 1 (Homo sapiens) (UniProt Q8N4C8); test: Inhibition of ZC3/MINK conserved Lys2 (DIKGQNVLLTENAEVK) in human PBMC at 1 uM
[23] = target: Serine/threonine-protein kinase ULK1 (Homo sapiens) (UniProt O75385); test: Inhibition of ULK1 conserved Lys2 (DLKPQNILLSNPAGR) in human PBMC at 0.1 uM
[24] = target: Mitogen-activated protein kinase 8 (Homo sapiens) (UniProt P45983); test: Inhibition of JNK1 conserved Lys2 (DLKPSNIVVK) in human PBMC at 1 uM
UniProt P45983, sequence (P45983 whole entry): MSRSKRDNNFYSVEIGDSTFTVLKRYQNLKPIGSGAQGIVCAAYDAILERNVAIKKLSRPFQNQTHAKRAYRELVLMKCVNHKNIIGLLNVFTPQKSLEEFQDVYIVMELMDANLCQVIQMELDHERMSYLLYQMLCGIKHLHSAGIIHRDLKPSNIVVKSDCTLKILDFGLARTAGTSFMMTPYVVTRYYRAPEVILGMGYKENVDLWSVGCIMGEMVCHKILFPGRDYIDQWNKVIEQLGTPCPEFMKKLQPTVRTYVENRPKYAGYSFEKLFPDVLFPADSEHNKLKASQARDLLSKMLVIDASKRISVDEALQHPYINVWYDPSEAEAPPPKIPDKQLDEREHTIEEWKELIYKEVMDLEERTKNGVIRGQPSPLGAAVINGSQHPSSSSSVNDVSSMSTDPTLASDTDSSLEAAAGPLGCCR

[25] = target: Interferon-induced, double-stranded RNA-activated protein kinase (Homo sapiens) (UniProt P19525); test: Inhibition of PKR activation Loop (IGDFGLVTSLKNDGKR) in human PBMC at 0.1 uM
[26] = target: T1, Scaffold protein ILK (Homo sapiens); test: Inhibition of ILK conserved Lys1 (WQGNDIVVKVLK) in human PBMC at 1 uM
[27] = target: Serine/threonine-protein kinase Sgk2 (Homo sapiens) (UniProt Q9HBY8); test: Inhibition of SGK2 conserved Lys1 (FYAVKVLQK) in human PBMC at 1 uM
[28] = target: Mitogen-activated protein kinase kinase kinase 3 (Homo sapiens) (UniProt Q99759); test: Inhibition of MAP3K3 conserved Lys2 (DIKGANILR) in human PBMC at 1 uM
UniProt Q99759, sequence (Q99759 whole entry): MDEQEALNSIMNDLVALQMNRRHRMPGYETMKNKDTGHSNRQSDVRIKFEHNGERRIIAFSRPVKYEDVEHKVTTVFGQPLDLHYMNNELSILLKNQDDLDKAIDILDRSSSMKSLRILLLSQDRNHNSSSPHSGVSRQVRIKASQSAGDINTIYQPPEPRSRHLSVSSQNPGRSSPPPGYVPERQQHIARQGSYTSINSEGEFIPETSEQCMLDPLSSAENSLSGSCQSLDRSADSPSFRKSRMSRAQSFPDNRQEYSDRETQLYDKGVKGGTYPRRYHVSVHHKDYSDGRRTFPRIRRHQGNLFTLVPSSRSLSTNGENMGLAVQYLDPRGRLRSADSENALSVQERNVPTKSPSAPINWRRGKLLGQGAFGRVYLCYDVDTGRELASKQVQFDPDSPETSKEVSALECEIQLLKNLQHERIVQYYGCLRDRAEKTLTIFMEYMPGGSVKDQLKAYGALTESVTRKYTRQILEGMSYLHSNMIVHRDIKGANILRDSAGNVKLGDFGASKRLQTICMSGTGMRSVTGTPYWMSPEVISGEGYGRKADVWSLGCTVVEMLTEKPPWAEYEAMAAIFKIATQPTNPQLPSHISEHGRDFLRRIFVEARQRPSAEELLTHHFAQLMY

[29] = target: Cyclin-dependent kinase 7 (Homo sapiens) (UniProt P50613); test: Inhibition of CDK7 labeling at conserved Lys2 (DLKPNNLLLDENGVLK) in human PBMC at 0.1 uM

UniProt P51812, sequence (P51812 whole entry, the tested form may be a part): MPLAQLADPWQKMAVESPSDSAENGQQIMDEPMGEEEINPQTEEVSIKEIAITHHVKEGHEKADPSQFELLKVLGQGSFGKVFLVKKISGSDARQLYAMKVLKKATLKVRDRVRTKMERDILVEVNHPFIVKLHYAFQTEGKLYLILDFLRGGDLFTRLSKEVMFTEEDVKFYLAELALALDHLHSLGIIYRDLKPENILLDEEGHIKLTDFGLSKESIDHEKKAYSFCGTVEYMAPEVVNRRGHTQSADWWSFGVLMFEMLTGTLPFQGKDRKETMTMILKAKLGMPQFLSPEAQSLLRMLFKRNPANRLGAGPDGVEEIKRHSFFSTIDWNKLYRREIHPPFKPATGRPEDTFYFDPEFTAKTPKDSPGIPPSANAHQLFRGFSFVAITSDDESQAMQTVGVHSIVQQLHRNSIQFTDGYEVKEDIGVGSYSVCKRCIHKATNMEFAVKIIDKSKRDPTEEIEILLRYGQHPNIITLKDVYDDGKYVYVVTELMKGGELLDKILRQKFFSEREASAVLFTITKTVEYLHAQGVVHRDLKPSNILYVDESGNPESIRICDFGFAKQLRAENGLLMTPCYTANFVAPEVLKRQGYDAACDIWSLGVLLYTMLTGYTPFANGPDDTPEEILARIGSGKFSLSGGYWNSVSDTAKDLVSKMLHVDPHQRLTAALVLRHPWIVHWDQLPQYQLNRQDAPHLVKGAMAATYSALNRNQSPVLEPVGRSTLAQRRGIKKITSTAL

CC(C)n1cc(-c2cc(-c3ccc(CN4CCOCC4)cc3)cnc2N)nn1
inhibition [1]: 23.2%
inhibition [2]: 2.2%
inhibition [3]: 7.6%
inhibition [4]: 1%
inhibition [5]: 22.3%
inhibition [6]: -8.1%
inhibition [7]: 5%
inhibition [8]: 20.5%
inhibition [9]: -7.8%
inhibition [10]: 33.9%
inhibition [11]: 23.9%
inhibition [12]: -2.3%
inhibition [13]: -4.9%
inhibition [14]: -0.7%
inhibition [15]: 12.6%
inhibition [16]: 27.5%
inhibition [17]: -6.6%
inhibition [18]: 0.1%
inhibition [19]: 10.1%
inhibition [20]: -2.7%
inhibition [21]: -6.4%
inhibition [22]: 29.1%
inhibition [23]: 17.2%
inhibition [24]: 23.9%
inhibition [25]: -0.3%
inhibition [26]: 10.4%
inhibition [27]: -2.2%
inhibition [28]: 29.2%
inhibition [29]: -5.8%
